Like-named read-outs stand apart in the source and are kept apart here.
Tested on: Huh7 cells that stably maintain a subgenomic HCV replicon (S22.3 cell-line)
Assay: Cell based HCV RNA replication assay (S22.3 replicon cells, real-time RT-PCR)
Details: Hepatitis C virus
[1] = Huh-7, 72 h, S22.3 cells, 72 hours incubation, HCV RNA by RT-PCR

SMILES | EC50 [1] [nM] | EC50 (Huh-7, Table 6) [nM] | further results
Cn1c(-c2cnco2)c(C2CCCCC2)c2ccc(C(=O)NC(C)(C)C(=O)Nc3ccc(/C=C/C(=O)O)cc3)cc21 [Entry 2108] | < 500 | – | –
Cn1c(-c2cnccn2)c(C2CCCC2)c2ccc(C(=O)NC3(C(=O)Nc4ccc(-c5ccc(C(=O)O)o5)cc4)CCC3)cc21 [Entry 7036] | – | – | EC50 (Huh-7, Table 7): < 500 nM
O=C(O)/C=C/c1ccc(NC(=O)C2(NC(=O)c3ccc4c(C5CCCCC5)c(-c5ccccc5)[nH]c4c3)CCCC2)cc1 [Entry 2035] | < 500 | – | –
CCCNc1nc(-c2c(C3CCCC3)c3ccc(C(=O)NC4(C(=O)Nc5ccc(/C=C/C(=O)O)cc5)CCC4)cc3n2C)cs1 [Entry 6076] | – | < 500 | –
Cn1c(-c2ccccn2)c(C2CCCC2)c2ccc(C(=O)NC3(C(=O)NCc4ccc(C(=O)O)cc4)CCC3)cc21 [Entry 7003] | – | – | EC50 (Huh-7, Table 7): 500 to 5000 nM
CC(C)(NC(=O)c1ccc2c(C3CCCCC3)c(-c3ccoc3)[nH]c2c1)C(=O)Nc1ccc(-c2csc(C(N)=O)n2)cc1 [Entry 2024] | < 500 | – | –
Cn1c(-c2csc(NCCN3CCOCC3)n2)c(C2CCCC2)c2ccc(C(=O)NC(C)(C)C(=O)Nc3ccc(/C=C/C(=O)O)cc3)cc21 [Entry 6025] | – | < 500 | –
CC(C)N1CCC(NC(=O)c2ccc3c(C4CCCC4)c(-c4ccccn4)n(C)c3c2)(C(=O)Nc2ccc(C=CC(=O)O)cc2)C1 (stereo not drawn) [Entry 7060] | – | – | EC50 (Huh-7, Table 7): < 500 nM
CC(=O)N1CCC(NC(=O)c2ccc3c(C4CCCCC4)c(-c4ccccn4)n(C)c3c2)(C(=O)Nc2ccc(C=CC(=O)O)cc2)C1 (stereo not drawn) [Entry 2106] | < 500 | – | –
CC(C)(NC(=O)c1ccc2c(C3CCCCC3)c(-c3ccoc3)[nH]c2c1)C(=O)Nc1ccc(-c2ccc(C(=O)O)o2)cc1 [Entry 2053] | < 500 | – | –
O=C(O)/C=C/c1ccc(NC(=O)C2(NC(=O)c3ccc4c(C5CCCCC5)c(-c5ccoc5)[nH]c4c3)CCCC2)cc1 [Entry 2036] | < 500 | – | –
CC(C)(NC(=O)c1ccc2c(C3CCCCC3)c(-c3ccoc3)[nH]c2c1)C(=O)Nc1ccc(-c2nc(C(=O)O)cs2)cc1 [Entry 2017] | < 500 | – | –
CCn1c(C(=O)O)cc2cc(NC(=O)[C@@H](C)NC(=O)c3ccc4c(C5CCCCC5)c(-c5ccoc5)[nH]c4c3)ccc21 [Entry 2015] | < 500 | – | –
C/C(=C\c1ccc(NC(=O)C2(NC(=O)c3ccc4c(C5CCCC5)c(-c5cccc(N)n5)n(C)c4c3)CCC2)cc1)C(=O)O [Entry 7026] | – | – | EC50 (Huh-7, Table 7): < 500 nM
Cn1c(-c2ccc(N)nc2)c(C2CCCCC2)c2ccc(C(=O)NC(C)(C)C(=O)Nc3ccc(/C=C/C(=O)O)cc3)cc21 [Entry 2080] | < 500 | – | –
CN1CCC(NC(=O)c2ccc3c(C4CCCC4)c(-c4nccs4)n(C)c3c2)(C(=O)Nc2ccc(/C=C/C(=O)O)cc2)CC1 [Entry 6101] | – | < 500 | EC50 (Huh-7, read-out: EC50 (number printed beside the class symbol), Table 6, cpd. 6101 only): 165 nM
Cn1c(-c2csc(N)n2)c(C2CCCC2)c2ccc(C(=O)NC3(C(=O)Nc4ccc(/C=C/C(=O)O)cc4)CCC3)cc21 [Entry 6074] | – | < 500 | –
CC(C)Nc1nc(-c2c(C3CCCC3)c3ccc(C(=O)NC(C)(C)C(=O)Nc4ccc(/C=C/C(=O)O)cc4)cc3n2C)cs1 [Entry 6017] | – | < 500 | –
Cn1c(-c2csc(N3CCCCC3)n2)c(C2CCCC2)c2ccc(C(=O)NC(C)(C)C(=O)Nc3ccc(/C=C/C(=O)O)cc3)cc21 [Entry 6016] | – | < 500 | –
Cc1cccc(-c2c(C3CCCC3)c3ccc(C(=O)NC4(C(=O)Nc5ccc(-c6ccc(C(=O)O)o6)cc5)CCCC4)cc3n2C)n1 [Entry 7021] | – | – | EC50 (Huh-7, Table 7): < 500 nM
CN1CCC(NC(=O)c2ccc3c(C4CCCC4)c(-c4ccccn4)n(C)c3c2)(c2nc3cc(C=CC(=O)O)ccc3[nH]2)C1 (stereo not drawn) [Entry 1028] | < 500 | – | –
Cn1c(-c2ccccn2)c(C2CCCC2)c2ccc(C(=O)NC3(C(=O)Nc4ccc(S(N)(=O)=O)cc4)CCC3)cc21 [Entry 7068] | – | – | EC50 (Huh-7, Table 7): < 500 nM

SMILES | EC50 [1] [nM] | EC50 (Huh-7, Table 6) [nM] | further results
O=C(NC1(C(=O)Nc2ccc(-c3ccc(C(=O)O)o3)cc2)CCCC1)c1ccc2c(C3CCCCC3)c(-c3ccoc3)[nH]c2c1 [Entry 2048] | < 500 | – | –
Cn1c(-c2csc(NC(=O)C(C)(C)C)n2)c(C2CCCC2)c2ccc(C(=O)NC3(C(=O)Nc4ccc(/C=C/C(=O)O)cc4)CCC3)cc21 [Entry 6081] | – | < 500 | –
Cc1cccc(-c2c(C3CCCC3)c3ccc(C(=O)NC4(C(=O)Nc5ccc(/C=C/C(=O)O)cc5)CCCC4)cc3n2C)n1 [Entry 6057] | – | < 500 | –
CC(=O)Nc1ccc(-c2c(C3CCCC3)c3ccc(C(=O)NC(C)(C)C(=O)Nc4cccc5c4cc(C(=O)O)n5C)cc3n2C)cc1C [Entry 1006] | < 500 | – | –
Cn1c(-c2cccc(N)n2)c(C2CCCCC2)c2ccc(C(=O)NC(C)(C)C(=O)Nc3ccc(/C=C/C(=O)O)cc3)cc21 [Entry 2096] | < 500 | – | –
Cc1cccc(-c2c(C3CCCC3)c3ccc(C(=O)NC4(C(=O)Nc5ccc6c(c5)cc(C(=O)O)n6C)CCC4)cc3n2C)n1 [Entry 7023] | – | – | EC50 (Huh-7, Table 7): < 500 nM
CCc1ccnc(-c2c(C3CCCC3)c3ccc(C(=O)NC4(C(=O)Nc5ccc(-c6ccc(C(=O)O)o6)cc5)CCCC4)cc3n2C)c1 [Entry 7043] | – | – | EC50 (Huh-7, Table 7): 500 to 5000 nM
CCc1ccnc(-c2c(C3CCCC3)c3ccc(C(=O)NC4(C(=O)Nc5ccc(-c6ccc(C(=O)O)o6)cc5)CCC4)cc3n2C)c1 [Entry 7042] | – | – | EC50 (Huh-7, Table 7): 500 to 5000 nM
C/C(=C\c1ccc(NC(=O)C2(NC(=O)c3ccc4c(C5CCCCC5)c(-c5ccoc5)[nH]c4c3)CCCC2)cc1)C(=O)O [Entry 2005] | < 500 | – | –
Cn1c(-c2ccccn2)c(C2CCCC2)c2ccc(C(=O)NC3(C(=O)Nc4ccc5[nH]ccc5c4)CCC3)cc21 [Entry 7077] | – | – | EC50 (Huh-7, Table 7): < 500 nM
Cc1c(C(=O)O)sc2ccc(NC(=O)C3(NC(=O)c4ccc5c(C6CCCC6)c(-c6ccccn6)n(C)c5c4)CCC3)cc12 [Entry 7064] | – | – | EC50 (Huh-7, Table 7): < 500 nM
Cn1c(-c2ccccn2)c(C2CCCC2)c2ccc(C(=O)NC3(c4nc5cc(C=CC(N)=O)ccc5[nH]4)CCC3)cc21 [Entry 1027] | < 500 | – | –
Cn1c(-c2csc(NC(=O)CC(C)(C)C)n2)c(C2CCCC2)c2ccc(C(=O)NC3(C(=O)Nc4ccc(/C=C/C(=O)O)cc4)CCCC3)cc21 [Entry 6095] | – | < 500 | –
CCC(CC)Nc1nc(-c2c(C3CCCC3)c3ccc(C(=O)NC(C)(C)C(=O)Nc4ccc(/C=C/C(=O)O)cc4)cc3n2C)cs1 [Entry 6031] | – | < 500 | –
Cn1c(-c2csc(NC3CCCC3)n2)c(C2CCCC2)c2ccc(C(=O)NC(C)(C)C(=O)Nc3ccc(/C=C/C(=O)O)cc3)cc21 [Entry 6033] | – | < 500 | –
Cc1nc(-c2nc(-c3c(C4CCCC4)c4ccc(C(=O)NC(C)(C)C(=O)Nc5ccc(/C=C/C(=O)O)cc5)cc4n3C)cs2)cs1 [Entry 6018] | – | < 500 | –
Cn1c(-c2csc(NC(=O)C(C)(C)C)n2)c(C2CCCC2)c2ccc(C(=O)NC3(C(=O)Nc4ccc(/C=C/C(=O)O)cc4)CCCC3)cc21 [Entry 6096] | – | < 500 | –
Cn1c(-c2ccccn2)c(C2CCCCC2)c2ccc(C(=O)NC(C)(C)C(=O)Nc3ccc(NC(=O)C(=O)NO)cc3)cc21 [Entry 2095] | < 500 | – | –
CC(C)N(C)c1nc(-c2c(C3CCCC3)c3ccc(C(=O)NC(C)(C)C(=O)Nc4ccc(/C=C/C(=O)O)cc4)cc3n2C)cs1 [Entry 6034] | – | < 500 | –
Cn1c(-c2cnc(N)nc2)c(C2CCCCC2)c2ccc(C(=O)NC(C)(C)C(=O)Nc3ccc(/C=C/C(=O)O)cc3)cc21 [Entry 2081] | < 500 | – | –
Cn1c(-c2ccc(N)cc2)c(C2CCCC2)c2ccc(C(=O)NC3(C(=O)Nc4ccc(-c5ccc(C(=O)O)o5)cc4)CCC3)cc21 [Entry 7016] | – | – | EC50 (Huh-7, Table 7): < 500 nM
CCN1CCC(NC(=O)c2ccc3c(C4CCCCC4)c(-c4ccoc4)[nH]c3c2)(C(=O)Nc2ccc(/C=C/C(N)=O)cc2)CC1 [Entry 2078] | 500 to 5000 | – | –
